System: DosRST pathway, CDC1551 (hspX′::GFP) reporter strain
Experiment: microbe, parasite or virus in culture
Assay type: cell-based
Conditions: Mycobacterium tuberculosis, Table 5, fluorescence inhibition, doses 200 μM to 0.328 μM

O=C(Nc1ccc(Cl)cc1)Nc1ccno1 [HC106F, 1-(4-chlorophenyl)-3-(1,2-oxazol-5-yl)urea]
EC50: 1330 nM

— patent US11617740B2, “Chemical inhibitors of Mycobacterium tuberculosis DosRST signaling and persistence” (priority 2017, dated 2023)
